Test results: paper PMC4242493
The list shows a part of the results. The list includes weakly bound sequences.

Each sequence was assayed against MaxL homodimer (UniProt P61244) (assay: universal protein-binding microarray (PBM)). Conditions: PBS-based mixture, 10 nM His-tagged protein dimer, 2% milk, 200 ng/uL BSA, 50 ng/uL salmon testes DNA, 0.02% TX-100; detection with Alexa 488 anti-His …; high values mean tight binding; most listed sequences are background and not binding sites; double strand, one strand shown.
Sequence of UniProt P61244 (P61244 whole entry): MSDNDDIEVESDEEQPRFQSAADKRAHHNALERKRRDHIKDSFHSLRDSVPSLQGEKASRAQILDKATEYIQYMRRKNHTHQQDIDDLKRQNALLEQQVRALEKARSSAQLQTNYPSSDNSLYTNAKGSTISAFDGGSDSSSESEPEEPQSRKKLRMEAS

Sequence	binding signal (normalized occupancy)
GCAGCCGA	0.0707
GTACTCGA	0.0799
AGCCTGTG	0.0727
GTGTTCCA	0.0781
AGTCGGGC	0.0682
CTACGCAC	0.0773
ACTCCGAT	0.0792
ACGTCAAT	0.0802
AAGCCACT	0.0744
AAAATGGT	0.078
CAAGAGAA	0.074
ATGTCGCA	0.0861
CGATCGAG	0.0669
GCCACAGC	0.0723
AATTGGGG	0.0815
CAGCGATC	0.0736
ATACCTTG	0.0801
ACCTCGAC	0.0703
CCTTCAAA	0.0731
CAAACGTG	0.103
CGCACAAA	0.0718
CTGCCTAA	0.075

Sequence	binding signal (normalized occupancy)
CCTTTTTA	0.0709
ACCAGACC	0.0739
ACGTTACC	0.0793
CTGTACGC	0.071
CTTTATAC	0.082
ATGCTCTG	0.0732
ACGAGGTA	0.0848
GATATATC	0.0839
GTTTGTAA	0.0738
AACCGCCT	0.069
TCCACCCA	0.0839
CCTTTTTC	0.0709
CAGTCGAA	0.0675
ATCGGGTC	0.0688
AGGAGATG	0.0762
CCTTGGGA	0.0682
ATATGACA	0.083
AAGGCGTA	0.0716
GACCTCCA	0.0723
ACTTCATC	0.0786
TGACTGAA	0.0747
GGCCCGAA	0.0683

Sequence	binding signal (normalized occupancy)
GTACGTAC	0.0795
CAAACCTA	0.0722
CCCACGGA	0.0758
GGTTACTA	0.0725
ATATCTCA	0.081
AAGTAAGG	0.0781
GAACCAGA	0.0689
GGACGCTA	0.073
CCTATAAG	0.0806
GGTTACCA	0.0757
GAATGCCA	0.0708
GTGCAGAA	0.0873
ATACTGAA	0.0782
CGCTCGCA	0.0724
GACACAAA	0.0763
CTCGTCCA	0.0692
ACTCGAAA	0.0716
GATGAATA	0.0846
AATGGGCC	0.0731
CCGTCCGA	0.065
CACAATGG	0.0783
CGCTAGCG	0.0644

Sequence	binding signal (normalized occupancy)
ATCATCTG	0.0826
ATATGCTA	0.0871
CCAAAATC	0.0749
GACGCGTA	0.0737
ATTTATCG	0.0754
AATCTCAA	0.0737
ACGGGCCA	0.0729
CAGGAGTC	0.0756
AAGCACCT	0.0743
AAATATGA	0.081
CCCACATC	0.0807
AGCGAGCA	0.0742
CTAGTAAA	0.0729
AACCTTCT	0.068
CCCTTTGA	0.0746
CACGAAAG	0.0757
GGGACAGA	0.0775
GCGTGCTA	0.117
CGTACGCA	0.0775
CCTTTCTC	0.0748
